Measured values reported in PubChem BioAssay AID488969 (Vanderbilt High Throughput Screening Facility, 2010).
Over roughly 110,000 compounds, “z-score” has its median near -0.1; the highest 2% begin near 2. The list shows a part of the results.

The molecules below were run against Metabotropic glutamate receptor 8 (Rattus norvegicus) (UniProt P70579) (assay: mGluR8 Gi/Go-coupled signaling modulation – cell-based, rat, thallium flux, HTS, primary screen (AID 488969)). Conditions: HEK293 rat mGluR8, GIRK (G protein-gated inwardly rectifying potassium channel) thallium flux, FluoZin2; at 10 µM; stronger effect = higher value.
UniProt P70579, sequence (P70579 whole entry, looked up): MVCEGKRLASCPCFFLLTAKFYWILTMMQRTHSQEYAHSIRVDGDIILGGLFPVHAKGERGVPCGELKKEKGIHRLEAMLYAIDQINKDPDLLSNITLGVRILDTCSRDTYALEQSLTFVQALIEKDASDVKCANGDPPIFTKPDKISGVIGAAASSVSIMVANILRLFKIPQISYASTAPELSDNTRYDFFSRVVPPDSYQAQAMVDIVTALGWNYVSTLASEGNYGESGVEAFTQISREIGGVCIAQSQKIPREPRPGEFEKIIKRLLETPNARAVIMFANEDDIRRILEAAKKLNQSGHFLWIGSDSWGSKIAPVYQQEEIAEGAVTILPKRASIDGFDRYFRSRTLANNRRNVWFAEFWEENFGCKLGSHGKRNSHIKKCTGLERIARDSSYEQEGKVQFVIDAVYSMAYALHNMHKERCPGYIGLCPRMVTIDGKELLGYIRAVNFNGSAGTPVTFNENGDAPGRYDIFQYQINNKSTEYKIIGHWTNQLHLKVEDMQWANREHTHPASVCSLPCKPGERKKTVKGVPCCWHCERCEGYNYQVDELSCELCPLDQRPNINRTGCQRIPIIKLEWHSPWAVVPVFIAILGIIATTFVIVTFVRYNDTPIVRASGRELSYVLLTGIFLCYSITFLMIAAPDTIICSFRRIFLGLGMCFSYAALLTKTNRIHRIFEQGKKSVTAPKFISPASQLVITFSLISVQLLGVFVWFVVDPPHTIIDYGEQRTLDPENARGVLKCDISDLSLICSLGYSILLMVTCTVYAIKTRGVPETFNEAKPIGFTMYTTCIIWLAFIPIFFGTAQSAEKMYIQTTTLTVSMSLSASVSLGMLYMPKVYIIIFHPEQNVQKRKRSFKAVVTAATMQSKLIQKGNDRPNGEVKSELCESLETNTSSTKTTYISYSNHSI

| SMILES | z-score |
| --- | --- |
| Cc1ccc(-n2c(C)cc(/C=C3\C(=O)NC(=O)N(C)C3=O)c2C)cc1C | -0.325 |
| Clc1ccccc1Nc1ncnc(-n2cccc2)n1 | -0.0163 |
| CCC12CN3CC(CC)(CN(C1)C3c1cccnc1)C2=O (stereo unspecified) | -0.395 |
| CN1c2ccc([N+](=O)[O-])cc2CC2(C(=O)NC(=O)N(c3ccccc3)C2=O)C1c1ccccc1 (stereo unspecified) | -0.241 |
| COc1ccc(-n2c(O)c(C(C)=NCc3ccco3)c(=O)[nH]c2=O)cc1 | -0.0453 |
| O=C(C1CCN(S(=O)(=O)c2ccccc2)CC1)N1CCC2(CC1)OCCO2 | 0.255 |
| O=C(COC(=O)Cc1ccccc1)Nc1ncc(Cl)cc1Cl | -0.26 |
| CCOC(=O)[C@@]12C(=O)C(=O)N[C@]1(c1ccccc1)C1OCCCC12 (stereo partly specified) | -0.17 |
| C=CCC1(CN2CCCC2=O)C(=O)NC(=O)NC1=O | -0.124 |
| CCc1ccc(C(=O)C23CN4CN(CN(C4)C2)C3)cc1 | 0.149 |
| COc1ccc(C(C)=O)cc1CC(C(=O)c1ccc(F)cc1)N(C)C (stereo unspecified) | -0.169 |
| Cc1ccc(CS(=O)(=O)CCC(=O)N2CCC3(CC2)OCCO3)cc1 | -0.0811 |
| O=C1Nc2ccccc2/C1=C/c1cnc[nH]1 | -0.0242 |
| COC(=O)C(C)Oc1cc(C)cc2oc(=O)c3c(c12)CCC3 (stereo unspecified) | -2.81 |
| Cc1cccnc1-n1c(CN2C(=O)c3ccccc3C2=O)nc2ccccc2c1=O | 0.0987 |
| COc1ccccc1CC1/C(=N/O)C2CCN1CC2 (stereo unspecified) | -0.406 |
| CN(C(=O)Oc1ccc([N+](=O)[O-])cc1)c1ccccc1 | -0.159 |
| CCN1CCN(C(=O)COc2ccc(S(=O)(=O)NC(C)C)cc2)CC1 | -0.11 |
| CC(=O)OC1C2CCCC1C(N1CCCC1)CC2 (stereo unspecified) | -0.393 |
| Cc1nc2ccccn2c1P(=S)(N1CCCCC1)N1CCCCC1 | -0.368 |
| Cc1cc(C)c(C(=O)CN2CCOCC2)c(C)c1 | -0.0206 |
| O=P(Nc1c(Cl)cccc1Cl)(c1ccccc1)c1nc2c(s1)CCCC2 (stereo unspecified) | -0.554 |
| CC(=NCc1ccc(F)cc1)c1c(O)n(C)c(=O)n(C)c1=O | 0.397 |
| C1=C(CCNCc2ccccc2)CCCC1 | 0.704 |

| SMILES | z-score |
| --- | --- |
| Cc1c(C(=O)N2CCC3(CC2)OCCO3)sc2ncnc(N(C)c3ccccc3)c12 | -0.392 |
| c1ccc2[nH]c(CCNC3CCCCC3)nc2c1 | -0.185 |
| CCCNS(=O)(=O)c1ccc(OCC(=O)N2CCN(C)CC2)cc1 | 0.234 |
| COC(=O)C(O)(c1ccc(N=Cc2ccccc2O)c(C)c1)C(F)(F)F (stereo unspecified) | 0.286 |
| Cc1ccc(C(C)C)c(OCC(=O)N2CCN(Cc3nc4cc([N+](=O)[O-])ccc4n3C)CC2)c1 | -0.713 |
| CCOC(=O)c1c(C)n(CCN2CCN(C)CC2)c2ccc(OC)cc12 | 1.21 |
| COc1ccc(Cl)cc1NC1=NCC(C)S1 (stereo unspecified) | -0.0245 |
| N#CCCn1cc(C(=O)Nc2ccccc2Br)c(-c2ccc([N+](=O)[O-])cc2)n1 | 0.412 |
| CC(=O)N1CCC2(CC1)CC(=O)c1cc(OCC(=O)N3CCN(C)CC3)ccc1O2 | 0.0662 |
| CCCCOC(=O)C1=C(N)OC2=C(C(=O)CCC2)[C@]12C(=O)Nc1ccccc12 | 0.112 |
| CN1C2CCC1CC(OC(=O)c1ccc([N+](=O)[O-])cc1)C2 (stereo unspecified) | 0.093 |
| CC1=NN(c2ccccc2)C(=O)C1/C=C1/C(=O)NC(=O)N(c2cc(C)cc(C)c2)C1=O (stereo unspecified) | -0.266 |
| O=C(CN1CCOCC1)NCC(=O)Nc1ccc(Br)cc1C(=O)c1ccccc1 | 0.00301 |
| CCC(C)N1CCN(C(=O)Cc2ccccc2)CC1 (stereo unspecified) | -0.234 |
| CCOC(=O)C1CCN(/C=C2/C(=O)NC(=O)N(c3ccc(OCC)cc3)C2=O)CC1 | 0.14 |
| CN(C)CC1CCCCC1OC(=O)c1ccc(Cl)c(Cl)c1 (stereo unspecified) | 0.316 |
| CCC(=NCCCn1ccnc1)c1c(O)n(Cc2ccccc2)c(=O)[nH]c1=O | -0.14 |
| O=C(c1cc(C(=O)NCc2ccc(Cl)cc2)c(=O)n(Cc2ccc(Cl)cc2)c1)c1cc(F)ccc1O | -0.165 |
| CCOC(=O)C1CCCCC12C(C#N)=C(N)Oc1n[nH]c(C)c12 (stereo unspecified) | 0.608 |
| O=C1C2CCCN2C(c2cccc(Cl)c2)N1c1ccccn1 (stereo unspecified) | -0.498 |
| COc1cccc(-n2c(O)c(C=NCc3ccc4c(c3)OCO4)c(=O)[nH]c2=O)c1 | -0.566 |
| CCCC[n+]1cc(/N=C(\[O-])OC)on1 | -0.276 |
| Cc1ccccc1Cc1c(C)nc2nc(SCC(=O)N3CCC4(CC3)OCCO4)nn2c1C | -0.419 |
| Cc1cc(OC(=O)CCCNC(=O)OC(C)(C)C)c2c3c(c(=O)oc2c1)CCC3 | -0.209 |

| SMILES | z-score |
| --- | --- |
| Cc1cccc(OCC(=O)N2CCN(Cc3ccncc3)CC2)c1 | -0.0785 |
| CN1C(=O)NC(=O)[C@]2(Cc3ccccc3N3CCN(c4ccccc4)CC32)C1=O (stereo partly specified) | -0.28 |
| CN(C)c1ccc(N=Cc2c(O)n(CCC3=CCCCC3)c(=O)[nH]c2=O)cc1 | 0.0762 |
| C(=NC12CN3CN(CN(C3)C1)C2)c1cccs1 | -0.0859 |
| NC(=O)CSc1nnc([C@@H](N)Cc2c[nH]c3ccccc23)o1 | 0.139 |
| O=C1CCCN1C(=O)c1cncc(Br)c1 | -0.123 |
| O=C(c1cc(-c2ccc(Cl)cc2)n(-c2ccc(Cl)cc2Cl)n1)N1CCOCC1 | -0.25 |
| CC(C)OP(=O)(OC(C)C)C(O)c1ccccc1F (stereo unspecified) | -0.358 |
| CCC(C#N)(CC)P(=S)(c1ccccc1)c1ccccc1 | -1.62 |
| Cc1cccc(CNCCc2ccccc2)n1 | -0.0722 |
| COC(=O)c1ccc(NC(=O)CSc2nc3ccc(N4C(=O)C5C6C=CC(C6)C5C4=O)cc3s2)cc1 (stereo unspecified) | -0.108 |
| C=CCn1c(O)c(C(C)=NCCO)c(=O)[nH]c1=O | 0.0269 |
| CCc1nc2ccccc2c(=O)n1-c1ccc2ccccc2c1 | -0.285 |
| CC1=CC(=O)NP(=O)(Oc2ccc3ccccc3c2)N1 (stereo unspecified) | -0.127 |
| CNC(=O)Oc1ccc(-c2cn3cc(Cl)ccc3n2)cc1 | -0.191 |
| Cn1c(O)c(C=NCCCN2CCCC2=O)c(=O)n(C)c1=O | -0.541 |
| COc1ccccc1CCNC1CCC(C)CC1 (stereo unspecified) | -1.32 |
| O=C1NCCN2CCCC12 (stereo unspecified) | -0.377 |
| Cc1ccc(/C=C2/C(=O)NC(=O)N(CCc3ccc(F)cc3)C2=O)o1 | -0.444 |
| CC(Cc1ccccc1)[n+]1cc(/N=C(\N)[O-])on1 (stereo unspecified) | -0.00574 |
| O=c1[nH]c(=O)n(CCc2ccccc2)c(O)c1C=NCCCn1ccnc1 | -0.246 |
| Cn1c(O)c(/C=N/c2ncccn2)c(=O)n(C)c1=O | -0.0134 |
| Cc1ccc2cc(C=C(C#N)C#N)c(Cl)nc2c1 | 0.0567 |
